Source: the supplement of paper PMC4967469

How the values were obtained:
Assay in all cases: Viability of human cancer cell lines after 72 h of drug (GDSC screen)
AZD6244 = compound: Cn1cnc2c(F)c(Nc3ccc(Br)cc3Cl)c(C(=O)NOCCO)cc21 [AZD6244]; conditions: screen: GDSC drug entry 1062
Protocol: (§1)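 Human cancer cell lines in 384-well plates, medium with 10% serum, drug for 72 h over a 256-fold dose range (nine 2-fold or five 4-fold steps up to the top dose). Adherent lines were fixed and stained with the nucleic acid dye Syto60, suspension lines read with resazurin; signal relative to control wells, capped at 0 and 100%. One two-parameter sigmoid per drug and line, fitted in a mixed model over all curves with the slope shared within a line.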

ZM-447439 = compound: COc1cc2c(Nc3ccc(NC(=O)c4ccccc4)cc3)ncnc2cc1OCCCN1CCOCC1 [ZM-447439]; conditions: top dose inferred
Protocol: as §1

PD-0332991 = compound: CC(=O)c1c(C)c2cnc(Nc3ccc(N4CCNCC4)cn3)nc2n(C2CCCC2)c1=O [PD-0332991]
Protocol: as §1

T-T (oesophagus, adherent, top dose 4 µM)
AUC (AZD6244): 0.967
IC50 (AZD6244): > 4 µM
AUC (ZM-447439): 0.888
IC50 (ZM-447439): > 4 µM
AUC (PD-0332991): 0.843
IC50 (PD-0332991): 2.8 µM

TC-71 (Ewing sarcoma, adherent, top dose 4 µM)
AUC (AZD6244): 0.992
IC50 (AZD6244): > 4 µM
AUC (ZM-447439): 0.792
IC50 (ZM-447439): 1.48 µM
AUC (PD-0332991): 0.944
IC50 (PD-0332991): > 4 µM

TC-YIK (cervix, suspension, top dose 4 µM)
AUC (AZD6244): 0.991
IC50 (AZD6244): > 4 µM
AUC (ZM-447439): 0.741
IC50 (ZM-447439): 1.09 µM
AUC (PD-0332991): 0.991
IC50 (PD-0332991): > 4 µM

TCCSUP (bladder, adherent, top dose 4 µM)
AUC (AZD6244): 0.972
IC50 (AZD6244): > 4 µM
AUC (ZM-447439): 0.915
IC50 (ZM-447439): > 4 µM
AUC (PD-0332991): 0.92
IC50 (PD-0332991): > 4 µM

TE-1 (oesophagus, adherent, top dose 4 µM)
AUC (AZD6244): 0.935
IC50 (AZD6244): > 4 µM
AUC (ZM-447439): 0.932
IC50 (ZM-447439): > 4 µM
AUC (PD-0332991): 0.982
IC50 (PD-0332991): > 4 µM

TE-4 (oesophagus, adherent, top dose 4 µM)
AUC (AZD6244): 0.987
IC50 (AZD6244): > 4 µM
AUC (ZM-447439): 0.878
IC50 (ZM-447439): > 4 µM
AUC (PD-0332991): 0.918
IC50 (PD-0332991): > 4 µM

TE-5 (oesophagus, adherent, top dose 4 µM)
AUC (AZD6244): 0.903
IC50 (AZD6244): > 4 µM
AUC (ZM-447439): 0.96
IC50 (ZM-447439): > 4 µM
AUC (PD-0332991): 0.864
IC50 (PD-0332991): > 4 µM

TE-6 (oesophagus, adherent, top dose 4 µM)
AUC (AZD6244): 0.966
IC50 (AZD6244): > 4 µM
AUC (ZM-447439): 0.973
IC50 (ZM-447439): > 4 µM
AUC (PD-0332991): 0.896
IC50 (PD-0332991): > 4 µM

TE-8 (oesophagus, adherent, top dose 4 µM)
AUC (AZD6244): 0.858
IC50 (AZD6244): 3.67 µM
AUC (ZM-447439): 0.844
IC50 (ZM-447439): 3.17 µM
AUC (PD-0332991): 0.715
IC50 (PD-0332991): 1.06 µM

TE-9 (oesophagus, adherent, top dose 4 µM)
AUC (AZD6244): 0.977
IC50 (AZD6244): > 4 µM
AUC (ZM-447439): 0.846
IC50 (ZM-447439): 3.09 µM
AUC (PD-0332991): 0.963
IC50 (PD-0332991): > 4 µM

TE-10 (oesophagus, adherent, top dose 4 µM)
AUC (AZD6244): 0.934
IC50 (AZD6244): > 4 µM
AUC (ZM-447439): 0.939
IC50 (ZM-447439): > 4 µM
AUC (PD-0332991): 0.909
IC50 (PD-0332991): > 4 µM

TE-11 (oesophagus, adherent, top dose 4 µM)
AUC (AZD6244): 0.884
IC50 (AZD6244): 3.68 µM
AUC (ZM-447439): 0.813
IC50 (ZM-447439): 1.92 µM
AUC (PD-0332991): 0.9
IC50 (PD-0332991): > 4 µM

TE-12 (oesophagus, suspension, top dose 4 µM)
AUC (AZD6244): 0.759
IC50 (AZD6244): 1.68 µM
AUC (ZM-447439): 0.943
IC50 (ZM-447439): > 4 µM
AUC (PD-0332991): 0.958
IC50 (PD-0332991): > 4 µM

TE-15 (oesophagus, suspension, top dose 4 µM)
AUC (AZD6244): 0.964
IC50 (AZD6244): > 4 µM
AUC (ZM-447439): 0.917
IC50 (ZM-447439): > 4 µM
AUC (PD-0332991): 0.862
IC50 (PD-0332991): > 4 µM

TGBC1TKB (biliary tract, adherent, top dose 4 µM)
AUC (AZD6244): 0.934
IC50 (AZD6244): > 4 µM
AUC (ZM-447439): 0.96
IC50 (ZM-447439): > 4 µM
AUC (PD-0332991): 0.867
IC50 (PD-0332991): 3.57 µM

TGBC11TKB (stomach, adherent, top dose 4 µM)
AUC (AZD6244): 0.992
IC50 (AZD6244): > 4 µM
AUC (ZM-447439): 0.969
IC50 (ZM-447439): > 4 µM
AUC (PD-0332991): 0.992
IC50 (PD-0332991): > 4 µM

TGW (neuroblastoma, adherent, top dose 4 µM)
AUC (AZD6244): 0.989
IC50 (AZD6244): > 4 µM
AUC (ZM-447439): 0.887
IC50 (ZM-447439): 3.36 µM
AUC (PD-0332991): 0.731
IC50 (PD-0332991): 1.02 µM

TK10 (kidney, adherent, top dose 4 µM)
AUC (AZD6244): 0.86
IC50 (AZD6244): > 4 µM
AUC (ZM-447439): 0.948
IC50 (ZM-447439): > 4 µM
AUC (PD-0332991): 0.797
IC50 (PD-0332991): 2.35 µM

TK (B-cell lymphoma, suspension, top dose 4 µM)
AUC (AZD6244): 0.99
IC50 (AZD6244): > 4 µM
AUC (ZM-447439): 0.968
IC50 (ZM-447439): > 4 µM
AUC (PD-0332991): 0.99
IC50 (PD-0332991): > 4 µM

TMK-1 (stomach, adherent, top dose 4 µM)
AUC (AZD6244): 0.986
IC50 (AZD6244): > 4 µM
AUC (ZM-447439): 0.941
IC50 (ZM-447439): > 4 µM
AUC (PD-0332991): 0.89
IC50 (PD-0332991): > 4 µM

TOV-21G (ovary, adherent, top dose 4 µM)
AUC (AZD6244): 0.943
IC50 (AZD6244): > 4 µM
AUC (ZM-447439): 0.755
IC50 (ZM-447439): 1.46 µM
AUC (PD-0332991): 0.772
IC50 (PD-0332991): 1.69 µM

TT2609-C02 (thyroid, adherent, top dose 4 µM)
AUC (AZD6244): 0.392
IC50 (AZD6244): 0.123 µM
AUC (ZM-447439): 0.719
IC50 (ZM-447439): 1.09 µM
AUC (PD-0332991): 0.593
IC50 (PD-0332991): 0.459 µM

TUR (B-cell lymphoma, suspension, top dose 4 µM)
AUC (AZD6244): 0.939
IC50 (AZD6244): > 4 µM
AUC (ZM-447439): 0.794
IC50 (ZM-447439): 1.68 µM
AUC (PD-0332991): 0.588
IC50 (PD-0332991): 0.428 µM

U-87-MG (glioma, adherent, top dose 4 µM)
AUC (AZD6244): 0.918
IC50 (AZD6244): > 4 µM
AUC (ZM-447439): 0.932
IC50 (ZM-447439): > 4 µM
AUC (PD-0332991): 0.914
IC50 (PD-0332991): > 4 µM

U-118-MG (glioma, adherent, top dose 4 µM)
AUC (AZD6244): 0.93
IC50 (AZD6244): > 4 µM
AUC (ZM-447439): 0.93
IC50 (ZM-447439): > 4 µM
AUC (PD-0332991): 0.849
IC50 (PD-0332991): 3.74 µM

U-266 (myeloma, semi-adherent, top dose 4 µM)
AUC (AZD6244): 0.596
IC50 (AZD6244): 0.501 µM
AUC (ZM-447439): 0.766
IC50 (ZM-447439): 2.01 µM
AUC (PD-0332991): 0.882
IC50 (PD-0332991): > 4 µM

U-698-M (B-cell leukaemia, suspension, top dose 4 µM)
AUC (AZD6244): 0.987
IC50 (AZD6244): > 4 µM
AUC (ZM-447439): 0.977
IC50 (ZM-447439): > 4 µM
AUC (PD-0332991): 0.948
IC50 (PD-0332991): > 4 µM

UACC-62 (melanoma, adherent, top dose 4 µM)
AUC (AZD6244): 0.979
IC50 (AZD6244): > 4 µM
AUC (ZM-447439): 0.935
IC50 (ZM-447439): > 4 µM
AUC (PD-0332991): 0.963
IC50 (PD-0332991): > 4 µM

UACC-257 (melanoma, adherent, top dose 4 µM)
AUC (AZD6244): 0.539
IC50 (AZD6244): 0.328 µM
AUC (ZM-447439): 0.963
IC50 (ZM-447439): > 4 µM
AUC (PD-0332991): 0.92
IC50 (PD-0332991): > 4 µM

VA-ES-BJ (soft tissue, adherent, top dose 4 µM)
AUC (AZD6244): 0.905
IC50 (AZD6244): > 4 µM
AUC (ZM-447439): 0.846
IC50 (ZM-447439): 3.18 µM
AUC (PD-0332991): 0.635
IC50 (PD-0332991): 0.604 µM

VAL (B-cell lymphoma, suspension, top dose 4 µM)
AUC (AZD6244): 0.986
IC50 (AZD6244): > 4 µM
AUC (ZM-447439): 0.884
IC50 (ZM-447439): > 4 µM
AUC (PD-0332991): 0.934
IC50 (PD-0332991): > 4 µM

VCaP (prostate, adherent, top dose 4 µM)
AUC (AZD6244): 0.987
IC50 (AZD6244): > 4 µM
AUC (ZM-447439): 0.97
IC50 (ZM-447439): > 4 µM
AUC (PD-0332991): 0.917
IC50 (PD-0332991): > 4 µM

A lower IC50 marks a more sensitive line; fits outside the tested doses are given as limits. AUC is the area under the same curve over the 256-fold range up to the top dose, as a fraction; it is 1 without any effect and falls as sensitivity rises. For part of these data: The top dose, if marked as inferred, is not printed in the source and was worked back from the curve model. For part of these data: Where an entry number is given, a second screen of the drug exists; the two often differ.
